The data set relates to skin on the volar forearm of a human subject. Description: Fluorescent dextran penetration into microporated skin, fluorescent video microscope. Conditions: 36 micropores, approximately 80 μm deep.

As for dextran, the “distance of permeation from the nearest micropore” value (in one square cm, within 5 minutes) was “more than 2 mm”. For the same substance, the “extent of fluorescent flush from the pores” value (10 minutes later) came to 10 mm.

The record behind these values is patent publication US9579380B2, “Microporation of tissue for delivery of bioactive agents” (priority 1996, dated 2017).
